From PubChem BioAssay AID360 (National Center for Advancing Translational Sciences (NCATS), 2006) come the findings set out here.

Molecules are shown by their SMILES. In all, about 48,000 compounds went through this assay and about 550 (1.1%) were called active. Inconclusive results (about 4%) are left out. No stated cut-off is given here; in the data, active means potency below about 15 µM; inconclusive means mostly about 16 µM to 33 µM; inactive means weaker than that. The list shows a part of the results.
Potency means the concentration at half of the fitted maximal effect.

UniProt P04062, sequence (P04062 whole entry, looked up): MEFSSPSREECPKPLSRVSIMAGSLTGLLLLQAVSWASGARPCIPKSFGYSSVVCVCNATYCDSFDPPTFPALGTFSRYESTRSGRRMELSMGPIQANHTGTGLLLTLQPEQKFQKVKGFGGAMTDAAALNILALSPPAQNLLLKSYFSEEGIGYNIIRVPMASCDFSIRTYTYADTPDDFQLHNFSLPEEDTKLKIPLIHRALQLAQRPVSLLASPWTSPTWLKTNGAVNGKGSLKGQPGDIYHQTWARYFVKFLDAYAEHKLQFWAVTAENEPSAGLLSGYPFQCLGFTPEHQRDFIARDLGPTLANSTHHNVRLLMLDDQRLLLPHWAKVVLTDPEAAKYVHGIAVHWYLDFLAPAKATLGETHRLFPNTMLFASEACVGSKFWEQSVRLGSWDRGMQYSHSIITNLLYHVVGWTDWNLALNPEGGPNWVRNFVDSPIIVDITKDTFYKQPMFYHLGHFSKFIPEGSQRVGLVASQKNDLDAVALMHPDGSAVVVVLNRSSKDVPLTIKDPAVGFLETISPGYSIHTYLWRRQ

The target of the assay is Lysosomal acid glucosylceramidase (Homo sapiens) (UniProt P04062). The assay can be described thus: Glucocerebrosidase.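 Further: the screen sought inhibitors.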 Conditions: purified enzyme, resorufin glucoside fluorescence (screen aimed at inhibitors), 20 min. The procedure, abridged:
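Compounds titrated against 0.2 nM normal enzyme, 30 uM resorufin beta-D-glucopyranoside substrate, citrate/phosphate buffer with taurocholate and tween-20, pH 5.9. Reaction ran 20 min at room temperature; fluorescence (Ex 548/Em 600) gave AC50.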
Turning to `COc1ccc(C2C(C#N)=C(/N=C/N3CCN(C)CC3)OC3=C2C(=O)CC(C)(C)C3)cc1OC` (configuration not stated), the Potency is inactive: > 76.9 µM.

As for `O=C(C1CCC1)N1CCc2cc(S(=O)(=O)Nc3ccc4c(c3)OCO4)ccc21`, the Potency is inactive: > 76.9 µM.

Turning to `CC(C)c1ccc(OCC(=O)NCc2ccco2)cc1`, the Potency is inactive: > 76.9 µM. As for `COc1ccc(CCNc2c(N)n(Cc3ccccc3)c(=O)[nH]c2=O)cc1OC`, the Potency is inactive: > 76.9 µM. As for `Cc1ccc(-n2ncc3c(NCc4ccccn4)ncnc32)c(C)c1`, the Potency was inactive: > 76.9 µM. For `COc1ccc(NC(=O)CS(=O)CC(=O)NC2CCCc3ccccc32)cc1` (configuration not stated), the Potency is inactive: > 76.9 µM. `O=C(Nc1nnc(-c2ccco2)s1)C1CCN(S(=O)(=O)c2ccc(Cl)cc2)CC1`: the Potency is inactive: > 76.9 µM.

For `c1ccc(CCn2nnnc2C(c2cccnc2)N2CCN(c3ccccc3)CC2)cc1` (configuration not stated), the Potency was inactive: > 76.9 µM. Take `COC(=O)c1ccc(Oc2cc(C)nc(SC)n2)cc1`: the Potency was inactive: > 76.9 µM. The figure for `O=C(NCc1cccnc1)C1CCCN(S(=O)(=O)c2ccc(Br)cc2)C1` (configuration not stated) is inactive: > 76.9 µM; for `Cc1ccc(CCNS(=O)(=O)c2cnc[nH]2)cc1` it is inactive: > 76.9 µM; for `O=C(CSc1nc2ccccc2s1)Nc1ncccn1` it is inactive: > 76.9 µM. The figure for `C=CCn1c(SCc2nc3ccccc3[nH]2)nnc1-c1ccccn1` is inactive: > 76.9 µM. Take `CS(=O)(=O)N(CC(=O)NCCSC1CCCCC1)c1ccc2c(c1)OCO2`: the Potency was inactive: > 76.9 µM. Regarding `O=C(CNCc1ccco1)Nc1ccccc1-n1cccc1`, the Potency is inactive: > 76.9 µM.

Regarding `CCn1c(COc2ccc(C)cc2)nnc1SCC(=O)Nc1ccc2c(c1)OCCO2`, the Potency was inactive: > 76.9 µM.

With `Cc1cc(C)cc(N2CCCn3c2nc2c3c(=O)n(CC(=O)OCc3ccccc3)c(=O)n2C)c1`, the Potency was inactive: > 76.9 µM. As for `CC(CNC(=O)c1cncc(O)c1)NC(=O)c1cncc(O)c1` (configuration not stated), the Potency was inactive: > 76.9 µM. `CSc1nc(SCC(=O)NCc2ccco2)c2c3c(sc2n1)CN(C)CC3`: the Potency was inactive: > 76.9 µM.

As to `CCCc1cc(=O)n2[nH]c(CCc3ccccc3)nc2n1`, the Potency is inactive: > 76.9 µM. Take `O=C(c1cnn2cccnc12)N1CCN(Cc2ccc3c(c2)OCO3)CC1`: the Potency is inactive: > 76.9 µM.

For `Cc1c(N=C2Nc3cccc4cccc2c34)c(=O)n(-c2ccccc2)n1C`, the Potency is inactive: > 76.9 µM. Take `CN1CCCN(C(=O)Cc2c(Cl)cccc2Cl)c2nc3ccccc3nc21`: the Potency is inactive: > 76.9 µM. For `CCOc1ccc(-n2c(SC)nc3c(c2=O)SCC3)cc1`, the Potency is inactive: > 76.9 µM. Consider `Cc1cc(NC(=O)CSc2nnc3c(C)cc4cc5c(cc4n23)OCO5)no1`, for which the Potency was inactive: > 76.9 µM.

For the compound `O=C(NCCNC(=O)c1cccs1)c1ccco1`, the Potency is inactive: > 76.9 µM. Consider `COC(=O)[C@H](C)NC(=O)Nc1cc(OC)ccc1OC`, for which the Potency is inactive: > 76.9 µM. The result for `CCN(CC)S(=O)(=O)c1ccc(-c2nnc(SCC(=O)Nc3ccc4c(c3)OCO4)o2)cc1` reads inactive: > 76.9 µM; that for `Cc1nc(CNS(=O)(=O)c2cccc(F)c2)cs1`, inactive: > 76.9 µM. Regarding `COC(=O)CCCC[C@H]1SC[C@H]2NC(=O)N[C@]21O`, the Potency result is “inactive”. As to `CCCCCn1c(N2CCN(c3cccc(Cl)c3)CC2)nc2c1c(=O)[nH]c(=O)n2C`, the Potency is inactive: > 76.9 µM.

With `CNc1nc(SCc2ccccc2)nc(N2CCOCC2)n1`, the Potency was inactive: > 76.9 µM. The figure for `COc1cc(OC)cc(C(=O)N(CN2CCCC2=O)c2ccccc2OC)c1` is inactive: > 76.9 µM; for `COc1ccccc1C(c1nnnn1CS(=O)(=O)c1ccc(C)cc1)N1CCSCC1` (configuration not stated) it is inactive: > 76.9 µM. `Cc1ccc(-c2oc3ncnc(N)c3c2-c2ccc(C)cc2)cc1`: the Potency is inactive: > 76.9 µM. Turning to `COc1ccc(Cl)c(NC(=O)Nc2c(C)n(-c3ccccc3)c(=O)n2C)c1`, the Potency was inactive: > 76.9 µM. For the compound `O=C(CSC1=NCCS1)N1CCCCCC1`, the Potency was inactive: > 76.9 µM. On to `CCC(=O)Nc1ccc(Cl)c(NC(=O)C(C)C)c1`, for which the Potency is inactive: > 76.9 µM. Regarding `O=C(Nc1ccccc1Cl)c1cnccn1`, the Potency was inactive: > 76.9 µM. Regarding `COc1ccccc1-c1nnc(SCC(=O)N2CCC(C)CC2)o1`, the Potency was inactive: > 76.9 µM.

With `O=c1[nH]c(N2CCc3ccccc3C2)nc2c1CCC2`, the Potency was inactive: > 76.9 µM. Turning to `O=C(CCN1C(=O)C2C3C=CC(C3)C2C1=O)N1CCN(c2ccc(F)cc2)CC1` (configuration not stated), the Potency is inactive: > 76.9 µM. As to `COc1ccccc1C(=O)NCC(c1cccnc1)N(C)C` (configuration not stated), the Potency is inactive: > 76.9 µM. Turning to `COc1ccc(CC(=O)N2CCN(c3ccccn3)CC2)cc1`, the Potency is inactive: > 76.9 µM. For the compound `COc1cc(S(=O)(=O)NCC2CCCO2)c(OC)cc1Cl` (configuration not stated), the Potency was inactive: > 76.9 µM. The figure for `CC1Cc2ccccc2N1CC(=O)NC(=O)NCc1ccco1` (configuration not stated) is inactive: > 76.9 µM.

As for `O=c1cccc(-c2ccccc2)[nH]1`, the Potency is inactive: > 76.9 µM. The result for `COc1ccc(-c2nnc(SCC(=O)Nc3ncc(C)s3)n2-c2ccccc2)cc1OC` reads inactive: > 76.9 µM; that for `CS(=O)(=O)N1CCN(C(=O)c2ccc(F)cc2)CC1`, inactive: > 76.9 µM.

For the compound `CCc1ccccc1NS(=O)(=O)c1cc(C)ccc1OC`, the Potency was inactive: > 76.9 µM. `O=C(O)Cc1cc2c(s1)CCCCC2`: the Potency was inactive: > 76.9 µM. The result for `Cc1cc(N2CCN(c3cccc(C(F)(F)F)c3)CC2)n2nc(C)nc2n1` reads inactive: > 76.9 µM. With `O=C(Nc1nc(-c2ccccc2)cs1)C1CCCN(S(=O)(=O)c2ccccc2)C1` (configuration not stated), the Potency was inactive: > 76.9 µM.

Regarding `Cc1cccc2cc(CN(Cc3ccco3)C(=O)c3cccs3)c(=O)[nH]c12`, the Potency was inactive: > 76.9 µM. The result for `C=CCSc1nc2c(c(=O)[nH]c(=O)n2C)n1C(C)C` reads inactive: > 76.9 µM; that for `COc1ccc(NC(=O)COc2nc(N(C)C)nc(N(C)C)n2)cc1`, inactive: > 76.9 µM; that for `COCC(=O)Nc1nc2n(n1)C(c1ccc(OC)cc1)CC(c1ccc(OC)cc1)N2` (configuration not stated), inactive: > 76.9 µM. `Cc1cccc(-n2c(=O)[nH]c3c(C(N)=O)nc(C(C)C)nc32)c1`: the Potency is inactive: > 76.9 µM. With `COC(=O)c1cc(C)sc1NC(=O)CCCC(=O)O`, the Potency was inactive: > 76.9 µM.

As to `Cn1nc(-c2ccc(N3CCCCC3)c(NC(=O)c3ccco3)c2)c2ccccc2c1=O`, the Potency was inactive: > 76.9 µM. The result for `C/C(N)=C(/C#N)C(=O)COc1ncnc2ccccc12` reads inactive: > 76.9 µM; that for `Cc1ccc(-c2csc(N(CCCN3CCOCC3)C(=O)c3ccco3)n2)cc1`, inactive: > 76.9 µM.

`CCOC(=O)N1CCC(NC(=O)CSc2cc(=O)n(CC)c3ccccc23)CC1`: the Potency is inactive: > 76.9 µM.

`CC1CCCCC1NC(=O)c1nn(C)c(=O)c2ccccc12` (configuration not stated): the Potency was inactive: > 76.9 µM.

Consider `Cc1ccc(NC(=O)CC2SCCNC2=O)cc1Cl` (configuration not stated), for which the Potency is inactive: > 76.9 µM.

Regarding `COc1ccc(CC(=O)c2ccccc2C(=O)O)cc1`, the Potency is inactive: > 76.9 µM. Turning to `Cc1cc(-c2nn3c(C)nnc3s2)ccc1NC(=O)C(C)(C)C`, the Potency is inactive: > 76.9 µM. `O=C(NCc1cccc(Cl)c1)c1cccnc1`: the Potency was inactive: > 76.9 µM. The figure for `Cc1nn(-c2ccccc2)c(C)c1NS(=O)(=O)c1ccccc1` is inactive: > 76.9 µM; for `c1ccc(N2CCN(c3c4c(nc5ncnn35)CCC4)CC2)cc1` it is inactive: > 76.9 µM.

For the compound `O=C(NC1CCCCC1)NC1CC2CCC(C1)N2C(=O)NC1CCCCC1` (configuration not stated), the Potency is inactive: > 76.9 µM.

On to `COC(=O)CC1Sc2ccccc2NC1=O` (configuration not stated), for which the Potency is inactive: > 76.9 µM. For the compound `Cc1cc(=O)oc(C)c1C(=O)NCCCN1CCN(c2ccc(F)cc2)CC1`, the Potency is inactive: > 76.9 µM. The figure for `COc1ccc(NC(=O)c2ocnc2C)cc1OC` is inactive: > 76.9 µM. In the case of `CCOC(=O)CNC(=O)C(=O)c1c(O)[nH]c2ccccc12`, the Potency was inactive: > 76.9 µM. As for `Cc1ccc(OCCSc2nnc(-c3ccncc3)n2C)cc1`, the Potency was inactive: > 76.9 µM. As to `NC(=O)c1cc(-c2ccccc2)nc(N2CCOCC2)n1`, the Potency was inactive: > 76.9 µM. As to `O=C(COC(=O)c1ccco1)NCc1ccco1`, the Potency was inactive: > 76.9 µM. Regarding `Cc1c(NC(=O)Cn2nc(C(=O)O)c3ccccc3c2=O)c(=O)n(-c2ccccc2)n1C`, the Potency was inactive: > 76.9 µM.

Turning to `CC(C)NC(=O)NC(=O)COC(=O)Cc1ccsc1`, the Potency was inactive: > 76.9 µM. `Cc1ccccc1Cn1c(=N)n(CC(=O)c2ccco2)c2ccccc21`: the Potency was inactive: > 76.9 µM. In the case of `CCOC(=O)COc1ccc(S(=O)(=O)NCCC2=CCCCC2)cc1`, the Potency was inactive: > 76.9 µM. For the compound `COc1ccccc1N1CCN(C(=O)CSc2nc(-c3ccccc3)cc(=O)[nH]2)CC1`, the Potency was inactive: > 76.9 µM. In the case of `O=C(Nc1ccccc1C(F)(F)F)N1CCCC(O)C1` (configuration not stated), the Potency is inactive: > 76.9 µM. The result for `O=C(CSc1nc2ccccc2[nH]1)N1CCN(c2ccc(F)cc2)CC1` reads inactive: > 76.9 µM.

Take `CCCn1c(NCc2ccc(C)o2)nc2ccccc21`: the Potency is inactive: > 76.9 µM. On to `COCCNC(=O)C1CC(=O)N(C2CCCCC2)C1` (configuration not stated), for which the Potency was inactive: > 76.9 µM. `CCc1nc(NCC2CCCO2)c2oc3ccccc3c2n1` (configuration not stated): the Potency is inactive: > 76.9 µM.

With `COc1ccc(S(=O)(=O)N(C)CC(=O)Nc2ccc3c(c2)OCCO3)cc1OC`, the Potency was inactive: > 76.9 µM.

For the compound `O=C(NCCCN1CCCCC1)C1CCC(=O)N1CCc1ccccc1` (configuration not stated), the Potency is inactive: > 76.9 µM. As for `O=[n+]1cc(-c2cc3ccccc3o2)n([O-])c2c1CCCC2`, the Potency is inactive: > 76.9 µM. On to `CCOC(=O)Cc1csc(NC(=O)CCNS(=O)(=O)c2ccc3c(c2)CCC(=O)N3)n1`, for which the Potency is inactive: > 76.9 µM.
